Assay results as given in the RNAGym collection of RNA variant scans (doi:10.1073/pnas.2313332121).
This sample is rich in variants without activity.

B1: TPR 5TU (parent)
chain: GGAUCUUCUCGAUCUAACAAAAAAGACAAAUCUGCCACAAAGCUUGAGAGCAUCUUCGGAUGCAGAGGCGGCAGCCUUCGGUGGCGCGAUAGCGCCAACGUUCUCAACUAUGACACGCAAAACGCGUGCUCCGUUGAAUGGAGUUUAUCAUG

Variants of: B1
Test: polymerase ribozyme fitness, log enrichment relative to wild type (log ratio); higher = more active; in vitro selection for triplet polymerase activity
Summary of the method: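 Each subunit of a heterodimeric triplet polymerase ribozyme was mutagenized into a library by PCR, transcribed, and subjected to one round of in vitro selection, run in triplicate. Libraries were annealed with a biotinylated primer, the partner subunit and triplets, incubated frozen at −7 °C, and extended constructs were gel-excised, captured on streptavidin beads and recovered by RT-PCR. Input and output libraries were sequenced on Illumina, keeping genotypes with ≥10 input reads and ≥1 read per output. Fitness is log base 2 of genotype enrichment divided by wild-type enrichment, from inverse-variance-weighted replicate averages.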

Variant | polymerase ribozyme fitness (log ratio)
A20U G46A C54U G70A U77G C85A C108G C116G | ≤ -4.2
A20U G48A A60G U139A A142C A147G | ≤ -4.2
A20U G48A G84A G152C | ≤ -4.2
A20U G48C A60C C85A U148G | ≤ -4.2
A20U G48U G65A A91C G92A A120G A121U U130A | ≤ -4.2
A20U G48U U61G C85G | ≤ -4.2
A20U G50C A64U U111G C125A G152A | ≤ -4.2
A20U G50C U78A C93A A110C U145A | ≤ -4.2
A20U G50C U78A C93A A110C U145C | ≤ -4.2
A20U G50U C51U G74C G88A | ≤ -4.2
A20U G58C C85U A98U C129U U134C | -1.85
A20U G58C C87G A122G G133A G136C | ≤ -4.2
A20U G58U G68U A73U G81A C125A | ≤ -4.2
A20U G62U G86A A107U G140A | ≤ -4.2
A20U G65C C85U A106U | ≤ -4.2
A20U G67U C116G | ≤ -4.2
A20U G68A C76U C87G | ≤ -4.2
A20U G70A G81C A89G U127C G143U | ≤ -4.2
A20U G70A G86A C96A U135G | ≤ -4.2
A20U G80C C149G | ≤ -4.2
A20U G80U C85G G140U | ≤ -4.2
A20U G81A G94C C103G G124A A138U A147G | ≤ -4.2
A20U G83C G92A U127A G128U | ≤ -4.2
A20U G84A G86C U90C U148A | ≤ -4.2

Variant | polymerase ribozyme fitness (log ratio)
A20U G94A | -1.88
A20U U31C A41C C51A | -2.21
A20U U31C U44G U56G G62A G141C | ≤ -4.2
A20U U31G C43G A52U A73C C93U G94U C116G A121G C149U | ≤ -4.2
A20U U31G U55A A73G C85G C87G U135C U148C | ≤ -4.2
A20U U33A G136C | ≤ -4.2
A20U U33C G71A U104A A106G A107G A137C | ≤ -4.2
A20U U33C G71C G92U C96G A119U C125A | ≤ -4.2
A20U U44A C93G U111C | ≤ -4.2
A20U U44C G50U C105U | ≤ -4.2
A20U U45A G48U A64G A137U | ≤ -4.2
A20U U45A G84A C93U A113U | ≤ -4.2
A20U U45G C79G G84A | ≤ -4.2
A20U U45G G71A C95G A107U A119U C131G G141A U145C | ≤ -4.2
A20U U53A C87U A89C G92C | ≤ -4.2
A20U U53A G71A A91U A98G A120C G141U | ≤ -4.2
A20U U53A G71U G86A G88A A89G U90C | ≤ -4.2
A20U U53A U55A C118G | -3.98
A20U U55A A147C | -2.31
A20U U55A C85A | -3.29
A20U U56A A64C A107G G126U | ≤ -4.2
A20U U56G C85A G88U G100U C105G C118G | ≤ -4.2
A20U U56G G65A C76U C85A G141C U148C | ≤ -4.2
A20U U61G C87U C95U | -3.33

Variant | polymerase ribozyme fitness (log ratio)
A20U U78A G80U A91U C105U A119U U135A G140U U145G | ≤ -4.2
A20U U78C A91G U148A U151G | ≤ -4.2
A20U U101A | -2.4
A21C | 0.199
A21C A22U A29U C57A G83U C87U U90C A110U | ≤ -4.2
A21C A22U A52G U55A G86C C87A U144G | ≤ -4.2
A21C A22U A89U G92C G94U G141A | ≤ -4.2
A21C A22U C54U A73G A89G | -1.48
A21C A23U A24U G92A A106G G133A | ≤ -4.2
A21C A23U U31A U44A G50A G141U | ≤ -4.2
A21C A24C A49G U134G U145A | ≤ -4.2
A21C A24G A28G A29U A40C A52C C96A C116U | ≤ -4.2
A21C A24U A30C A49U U55G C87U C125U G141U | ≤ -4.2
A21C A24U G46U C57U C93U | -1.65
A21C A26C A28C G70U A107C A147C | ≤ -4.2
A21C A26U C57U C93A C116U G141U A147U | ≤ -4.2
A21C A26U G140C U146A | ≤ -4.2
A21C A28C A40C U109G G133U U134A | ≤ -4.2
A21C A28C C54G G58C C85U A120U G143U | ≤ -4.2
A21C A28C G48U C96A G117U | ≤ -4.2
A21C A28U G59C A97G U134C | ≤ -4.2
A21C A29G A30U G50A C57U C96G | ≤ -4.2
A21C A29U A39U U55A G68C C95A C118G C125G | ≤ -4.2
A21C A30C A52U G65U G92U A115C C116A | ≤ -4.2

Variant | polymerase ribozyme fitness (log ratio)
A21C A30G U45A U53A A60C U90A G94U G100U | ≤ -4.2
A21C A37G U78C G81U G88U C96U U111A U148C | ≤ -4.2
A21C A40C C99G | -0.927
A21C A41C C51U G65A G71U G83A | ≤ -4.2
A21C A41U G71A A98U G136U A147U U148C | ≤ -4.2
A21C A47C G86U G140A U145G | ≤ -4.2
A21C A49C A52C U53G G84U C95U G141A | ≤ -4.2
A21C A49C C103G G117A G140C U151G | ≤ -4.2
A21C A49U C54U C85G G117A G124U | -3.06
A21C A52C C85U G117C | -0.924
A21C A52C U56A C85G C93G A98U | ≤ -4.2
A21C A52G A64U G94A C108A U135A | ≤ -4.2
A21C A52G A73U G86C | ≤ -4.2
A21C A52G C103G | -1.21
A21C A52U C93U C99A G124A A137C A150U | ≤ -4.2
A21C A52U G74A G94C A121U | ≤ -4.2
A21C A60G A73U C93G A137U | ≤ -4.2
A21C A73U A107C A121U C149U | ≤ -4.2
A21C A91G C96U | -3.34
A21C A91G C114G C125G | ≤ -4.2
A21C A137G | -0.909
A21C C27A A52G U56A G92U A113G U139A | ≤ -4.2
A21C C27A C95U U134G A138C | ≤ -4.2
A21C C27U C76A G84A C95A G126A G141A A150C | ≤ -4.2

Variant | polymerase ribozyme fitness (log ratio)
A21C C32A C96A A98C G136A U144C | ≤ -4.2
A21C C32G C43U C57A G71U C85A G88C A91C A147U | ≤ -4.2
A21C C32G G50A C93U A119U | ≤ -4.2
A21C C32U C36G C79U A142U U148C | ≤ -4.2
A21C C35G C36A G86A G143A | ≤ -4.2
A21C C35G C36G G112A G124A G143C U148G | ≤ -4.2
A21C C36A C95G | -3.86
A21C C36A U55C | ≤ -4.2
A21C C38A G84A C93A A107C A115C A122U | ≤ -4.2
A21C C38U G46C U53G G88U A122U G126A U135C C149G | ≤ -4.2
A21C C43U A142C U145A | ≤ -4.2
A21C C43U C105U C116A A137U | ≤ -4.2
A21C C51A G83U G128U C131G | ≤ -4.2
A21C C51G A91G G92A U102A | ≤ -4.2
A21C C51G C79A C116U | ≤ -4.2
A21C C51U A66G C85G | ≤ -4.2
A21C C54G G58A U90A C95U | ≤ -4.2
A21C C54G U78A | ≤ -4.2
A21C C63U A73C C95A A98U | -3.29
A21C C72G G124C | ≤ -4.2
A21C C75G C96G C131G | -4.13
A21C C93U | -1.24
A21C C93U A97U C116U C123U | -0.404
A21C C95U C129A | -2.89

Variant | polymerase ribozyme fitness (log ratio)
A21C G25A G48C A52G U90G C93A C114U | ≤ -4.2
A21C G25A G92A G133U A150G | ≤ -4.2
A21C G25U U45A C93A G141A | ≤ -4.2
A21C G34A C43U A60C A64G A91U | ≤ -4.2
A21C G42A C54A C96G U102G | ≤ -4.2
A21C G46A G48C U56A G70C G83U G124A | ≤ -4.2
A21C G46U U78G C96A G141C | ≤ -4.2
A21C G48A C76G U127A | ≤ -4.2
A21C G48C U61G A73G A138U U146G | ≤ -4.2
A21C G50A A64G G70A U78G G92A C99A C108G | ≤ -4.2
A21C G50A G80C | ≤ -4.2
A21C G59A A113G | -1.92
A21C G59A G74A C93G A98G | ≤ -4.2
A21C G59C C79A G152A | ≤ -4.2
A21C G62A G81A C87A A98U C149G | ≤ -4.2
A21C G65A C93G C96A A120U U148A | ≤ -4.2
A21C G65C A137U | ≤ -4.2
A21C G68C C69A C93G U144G | ≤ -4.2
A21C G70C C85U G128C | ≤ -4.2
A21C G71C C75A C95U U101A C105U U144C | ≤ -4.2
A21C G88U A142U | ≤ -4.2
A21C U31A U45G A52G C108U | ≤ -4.2
A21C U31C C32A A52C A97C | ≤ -4.2
A21C U31G G80C A91U C103A C149A | ≤ -4.2

Variant | polymerase ribozyme fitness (log ratio)
A21C U33A C116G C129U U145A | ≤ -4.2
A21C U33A G50A G62A U90C C95A | ≤ -4.2
A21C U44A C87A U135A | ≤ -4.2
A21C U44A G48A G59C G74U C75A | ≤ -4.2
A21C U44A G48C U56A C85U U104G U139G | ≤ -4.2
A21C U45A A64G G92A | -3.46
A21C U45C G58A A97U G100A G124U U134A | ≤ -4.2
A21C U45G C54G G143C | ≤ -4.2
A21C U53A A91U C95G U134A U139C G152U | ≤ -4.2
A21C U55A | -0.0725
A21C U55G C93U G126U | -0.141
A21C U56A | -0.39
A21C U56A C75A C99U | ≤ -4.2
A21C U56A C76G G133U | ≤ -4.2
A21C U56A C87G U101C A147C | ≤ -4.2
A21C U56G C85A C87U G92A | -3.51
A21C U56G G59A C72U A122U | -0.846
A21C U61A A89U U90G G100U G136A A138C U144G | ≤ -4.2
A21C U61A G83U C105A | ≤ -4.2
A21C U61G C85U | 0.133
A21C U77C C103A | ≤ -4.2
A21C U82A C129G U139A | ≤ -4.2
A21C U90A C103A G133C A142G | ≤ -4.2
